# In article PMC9911399, “Two distinct binding modes provide the RNA-binding protein RbFox with extraordinary sequence specificity”:
# Changes are numbered by the printed parent chain; changes in the protein carry UniProt numbers. The list shows a part of the results.
# B1: AACUAUA (DNA:RNA)
# RNA: GGGAGACCGGAAUUCAGAUUGUCCAACUAUAUUAAAUCCCGUCGUAGCCACCA
# DNA 1: CAATCTGAATTCCGGTCTCCC
# DNA 2: TGGTGGCTACGACGGGATT
# B2: UGGCGAA (DNA:RNA)
# RNA: B1 RNA with A25U, A26G, C27G, U28C, A29G, U30A
# DNA 1: CAATCTGAATTCCGGTCTCCC
# DNA 2: TGGTGGCTACGACGGGATT
# B3: CAGCCAG (DNA:RNA)
# RNA: B1 RNA with A25C, C27G, U28C, A29C, U30A, A31G
# DNA 1: CAATCTGAATTCCGGTCTCCC
# DNA 2: TGGTGGCTACGACGGGATT
# B4: AGGCGGG (DNA:RNA)
# RNA: B1 RNA with A26G, C27G, U28C, A29G, U30G, A31G
# DNA 1: CAATCTGAATTCCGGTCTCCC
# DNA 2: TGGTGGCTACGACGGGATT
# B5: AUCGAGU (DNA:RNA)
# RNA: B1 RNA with A26U, U28G, U30G, A31U
# DNA 1: CAATCTGAATTCCGGTCTCCC
# DNA 2: TGGTGGCTACGACGGGATT
# B6: UGACCGG (DNA:RNA)
# RNA: GGGAGACCGGAAUUCAGAUUGUCCUGACCGGUUAAAUCCCGUCGUAGCCACCA
# DNA 1: CAATCTGAATTCCGGTCTCCC
# DNA 2: TGGTGGCTACGACGGGATT
# B7: CUAAACG (DNA:RNA)
# RNA: B6 RNA with U25C, G26U, C28A, C29A, G30C
# DNA 1: CAATCTGAATTCCGGTCTCCC
# DNA 2: TGGTGGCTACGACGGGATT
# B8: GGCAAUC (DNA:RNA)
# RNA: B1 RNA with A25G, A26G, U28A, A31C
# DNA 1: CAATCTGAATTCCGGTCTCCC
# DNA 2: TGGTGGCTACGACGGGATT
# B9: GCUGGUG (DNA:RNA)
# RNA: B1 RNA with A25G, A26C, C27U, U28G, A29G, A31G
# DNA 1: CAATCTGAATTCCGGTCTCCC
# DNA 2: TGGTGGCTACGACGGGATT
# B10: CACGGAU (DNA:RNA)
# RNA: B1 RNA with A25C, U28G, A29G, U30A, A31U
# DNA 1: CAATCTGAATTCCGGTCTCCC
# DNA 2: TGGTGGCTACGACGGGATT
# B11: ACCUAAU (DNA:RNA)
# RNA: B1 RNA with A26C, U30A, A31U
# DNA 1: CAATCTGAATTCCGGTCTCCC
# DNA 2: TGGTGGCTACGACGGGATT
# B12: UGAUAAG (DNA:RNA)
# RNA: B6 RNA with C28U, C29A, G30A
# DNA 1: CAATCTGAATTCCGGTCTCCC
# DNA 2: TGGTGGCTACGACGGGATT
# B13: AAAAAGA (DNA:RNA)
# RNA: B1 RNA with C27A, U28A, U30G
# DNA 1: CAATCTGAATTCCGGTCTCCC
# DNA 2: TGGTGGCTACGACGGGATT
# B14: ACCGGGC (DNA:RNA)
# RNA: B1 RNA with A26C, U28G, A29G, U30G, A31C
# DNA 1: CAATCTGAATTCCGGTCTCCC
# DNA 2: TGGTGGCTACGACGGGATT
# B15: GGGGUCU (DNA:RNA)
# RNA: B6 RNA with U25G, A27G, C28G, C29U, G30C, G31U
# DNA 1: CAATCTGAATTCCGGTCTCCC
# DNA 2: TGGTGGCTACGACGGGATT
# B16: CAACAGA (DNA:RNA)
# RNA: B1 RNA with A25C, C27A, U28C, U30G
# DNA 1: CAATCTGAATTCCGGTCTCCC
# DNA 2: TGGTGGCTACGACGGGATT
# B17: UUCGGUU (DNA:RNA)
# RNA: B1 RNA with A25U, A26U, U28G, A29G, A31U
# DNA 1: CAATCTGAATTCCGGTCTCCC
# DNA 2: TGGTGGCTACGACGGGATT
# B18: AUGCGCG (DNA:RNA)
# RNA: B6 RNA with U25A, G26U, A27G, C29G, G30C
# DNA 1: CAATCTGAATTCCGGTCTCCC
# DNA 2: TGGTGGCTACGACGGGATT
# B19: GCGUCAA (DNA:RNA)
# RNA: B1 RNA with A25G, A26C, C27G, A29C, U30A
# DNA 1: CAATCTGAATTCCGGTCTCCC
# DNA 2: TGGTGGCTACGACGGGATT
# B20: CCUGGAG (DNA:RNA)
# RNA: B6 RNA with U25C, G26C, A27U, C28G, C29G, G30A
# DNA 1: CAATCTGAATTCCGGTCTCCC
# DNA 2: TGGTGGCTACGACGGGATT
# Target: T1, RBFOX1 RRM (Homo sapiens, UniProt Q9NWB1 109-208)
# T1 sequence: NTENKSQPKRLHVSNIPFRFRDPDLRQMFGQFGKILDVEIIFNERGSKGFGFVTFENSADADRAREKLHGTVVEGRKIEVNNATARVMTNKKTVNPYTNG
# Test: EMSA; HiTS-Eq, 1 nM pool, 10 min; buffer printed only for the single-RNA assays: 10 mM Tris pH 7.5, 150 mM NaCl, 3.4 mM EDTA, 0.001% NP-40, 30 C
# Details: tags: His6 N-terminal (pET28a); label: 5' 32P
# Procedure, shortened: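 Purified wild-type or mutant RbFox RRM at increasing concentrations was equilibrated with 1 nM of 5′-radiolabelled RNA carrying 7 randomized nucleotides for 10 min in 50 µL. Unbound RNA was separated by 8% native PAGE and sequenced. Relative association constants came from read-count changes of each RNA species compared with the control reaction, normalised to the cognate motif.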
row,Binder,binding signal
1,B1,0.00166 KA relative to UGCAUGU
2,B2,0.016 KA relative to UGCAUGU
3,B3,0.00949 KA relative to UGCAUGU
4,B4,0.0133 KA relative to UGCAUGU
5,B5,0.00452 KA relative to UGCAUGU
6,B6,0.0112 KA relative to UGCAUGU
7,B7,0.0058 KA relative to UGCAUGU
8,B8,0.0087 KA relative to UGCAUGU
9,B9,0.029 KA relative to UGCAUGU
10,B10,0.00762 KA relative to UGCAUGU
11,B11,0.000495 KA relative to UGCAUGU
12,B12,0.0175 KA relative to UGCAUGU
13,B13,0.00137 KA relative to UGCAUGU
14,B14,0.0122 KA relative to UGCAUGU
15,B15,0.0436 KA relative to UGCAUGU
16,B16,0.00385 KA relative to UGCAUGU
17,B17,0.0155 KA relative to UGCAUGU
18,B18,0.0189 KA relative to UGCAUGU
19,B19,0.00838 KA relative to UGCAUGU
20,B20,0.0155 KA relative to UGCAUGU
